Test results from PubChem BioAssay (NCATS).
Several values for one entry are separate records, joined by “and”; a condition that tells them apart may be missing. Equal values may be shown once. Inconclusive results, whose numbers are uncertain, are shown with a selection of clear calls. For some of these results: A potency beside an inconclusive call is a rough fit, not a confirmed value. Activity calls are given as the source filed them. The call rests on the fitted dose curve; in most records, active means well fitted curve in the direction sought with a large enough effect; inconclusive means small, poorly fitted or top-dose-only effect, or another doubt; inactive means no such curve, though single readings can be large; an effect the other way counts as inactive or inconclusive.

Key:
[1] = system: CRL-7250; assay: Cytotoxic Profiling of Annotated Libraries Using Quantitative High-Throughput Screening (AID 1296008); conditions: Five cell lines viability, CellTiter-Glo ATP luminescence, 48-72 h; max response: hits give low values; further: nearly all actives have a fitted effect of over 60% in size; on max response: on the % scale 0 is the no-effect control and ±100 the full control effect
In short: (§1)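 Cytotoxicity was measured as CellTiter-Glo ATP luminescence, read after 10 min at room temperature. Compound treatment of the cells lasted 48 or 72 hr at 37 degrees Celsius in a qHTS format.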

[2] = Drug repurposing screens with cells derived from glioblastoma tumor samples (AID 1345199); conditions: GBM patient neurospheres viability, ATP luminescence, 48 h; Potency: tumour line A unless noted; activity, negative = cell killing: at 46 µM (top of the series), tumour line A unless noted; further: nearly all actives have a fitted effect of over 40% in size
In short: (§2)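 Four patient lines of CD133+ GBM neurospheres were screened at several concentrations; hits were retested in those lines plus three slower-growing GBM lines, using 48-hour treatment and ATP-based viability.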

[3] = system: W2; assay: qHTS profiling for inhibitors of Plasmodium falciparum proliferation (AID 504749); further: nearly all actives have a fitted effect of over 60% in size; conditions: P. falciparum in erythrocytes, SYBR Green DNA, 72 h; series mostly up to 28.7 µM
In short: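 Three-day growth assay of blood-stage parasites in erythrocytes (0.3% parasitemia, 2.5% hematocrit) at 37 C, 5% CO2, quantified by SYBR Green DNA staining after overnight detergent lysis.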

[4] = system: MKL-1; assay: qHTS assay to identify novel small-molecules to repurpose for Merkel cell carcinoma treatment (AID 1296009); conditions: MCC and control cell lines, CellTiter-Glo viability, 72 h; series mostly up to 46 µM; further: nearly all actives have a fitted effect of over 60% in size; on activity change, negative = cytotoxicity: on the % scale 0 is the no-effect control and ±100 the full control effect
In short: (§3)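 After compound transfer in DMSO, plates were kept 72 hr at 37 degree celsius. Luminescent ATP signal from CellTiter-Glo served as viability measure, normalized against DMSO and no-cell controls.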

[5] = system: MKL-2; assay: as above; conditions: MCC and control cell lines, CellTiter-Glo viability, 72 h; series mostly up to 46 µM
In short: as §3

[6] = system: WaGa; assay: as above; conditions: MCC and control cell lines, CellTiter-Glo viability, 72 h; series mostly up to 46 µM
In short: as §3

[7] = system: HEK293; assay: Cytotoxic Profiling of Annotated Libraries Using Quantitative High-Throughput Screening (AID 1296008); conditions: Five cell lines viability, CellTiter-Glo ATP luminescence, 48-72 h; max response: hits give low values; further: nearly all actives have a fitted effect of over 60% in size; on max response: on the % scale 0 is the no-effect control and ±100 the full control effect
In short: as §1

[8] = system: HaCat; assay: as above; conditions: Five cell lines viability, CellTiter-Glo ATP luminescence, 48-72 h; max response: hits give low values
In short: as §1

[9] = system: C33A; assay: Primary qHTS to identify gynecologic anti-cancer compounds using libraries of approved drugs and bioactive compounds (AID 1345084); conditions: Gynecologic cancer cell panel viability, ATPlite luminescence, 48 h; series mostly up to 57.5 µM; further: nearly all actives have a fitted effect of over 55% in size
In short: (§4)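 Measured: luminescence after ATPlite addition (15 min, RT). Exposure: 48 h, 37 C, 5% CO2.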

[10] = system: astro; assay: Drug repurposing screens with cells derived from glioblastoma tumor samples (AID 1345199); conditions: viability, ATP luminescence, 48 h; activity, negative = cell killing: at 45.9 µM (top of the series); further: nearly all actives have a fitted effect of over 40% in size
In short: as §2

[11] = system: CAOV3; assay: Primary qHTS to identify gynecologic anti-cancer compounds using libraries of approved drugs and bioactive compounds (AID 1345084); conditions: Gynecologic cancer cell panel viability, ATPlite luminescence, 48 h; series mostly up to 57.5 µM; further: nearly all actives have a fitted effect of over 55% in size
In short: as §4

[12] = system: CASKI; assay: as above; conditions: Gynecologic cancer cell panel viability, ATPlite luminescence, 48 h; activity change, negative = cytotoxicity: at 57.5 µM (top of the series)
In short: as §4

[13] = system: Es-2; assay: as above; conditions: Gynecologic cancer cell panel viability, ATPlite luminescence, 48 h; series mostly up to 57.5 µM
In short: as §4

[14] = system: MCC-13; assay: qHTS assay to identify novel small-molecules to repurpose for Merkel cell carcinoma treatment (AID 1296009); conditions: MCC and control cell lines, CellTiter-Glo viability, 72 h; series mostly up to 46 µM; further: nearly all actives have a fitted effect of over 60% in size
In short: as §3

[15] = system: MCC-26; assay: as above; conditions: MCC and control cell lines, CellTiter-Glo viability, 72 h; series mostly up to 46 µM
In short: as §3

[16] = system: UISO; assay: as above; conditions: MCC and control cell lines, CellTiter-Glo viability, 72 h; series mostly up to 46 µM
In short: as §3

[17] = system: NIH3T3; assay: Cytotoxic Profiling of Annotated Libraries Using Quantitative High-Throughput Screening (AID 1296008); conditions: Five cell lines viability, CellTiter-Glo ATP luminescence, 48-72 h; max response: hits give low values; further: nearly all actives have a fitted effect of over 60% in size; on max response: on the % scale 0 is the no-effect control and ±100 the full control effect
In short: as §1
Potency means the concentration at half of the fitted maximal effect; tags describe the fitted curve by direction and shape.

## Nc1ccc(S(=O)(=O)Nc2ccccc2)cc1
[1]
  outcome: inactive
[2]
  Potency: inconclusive: 11.2 µM [inhibitor, partial curve, poor fit]

## CC(C)CN(C[C@@H](O)[C@H](Cc1ccccc1)NC(=O)O[C@H]1CO[C@H]2OCC[C@H]21)S(=O)(=O)c1ccc(N)cc1
[3]
  Potency: inconclusive: 16.9 µM [inhibitor, single point]
[1]
  max response: inactive: -22%
[4]
  Potency: inconclusive: 3.72 µM [inhibitor, full curve]
[5]
  Potency: inconclusive: 2.09 µM [inhibitor, full curve]
[6]
  Potency: inconclusive: 3.72 µM [inhibitor, full curve]

## C=C1C[C@@]2(O)O[C@@]3(C[C@H]2C(C)C)[C@H](C)CC[C@H]13
[7]
  max response: inactive: 0.867%

## CS(=O)(=O)c1ccc(C(=O)Nc2ccc(Cl)c(-c3ccccn3)c2)c(Cl)c1
[7]
  Potency: inconclusive: 29.1 µM [inhibitor, single point]
[8]
  Potency: inconclusive: 0.651 µM [inhibitor, full curve, poor fit]
  max response: inactive: -0.0394%
[6]
  Potency: inactive
[9]
  Potency: inconclusive: 8.91 µM [cytotoxic, single point]

## O=c1n(CCCN2CCN(c3cccc(Cl)c3)CC2)nc2ccccn12
[7]
  max response: inactive: 2.07% and inactive: 1.71%

## N#Cc1c(O)c2c(-c3ccc(-c4ccccc4O)cc3)csc2[nH]c1=O
[7]
  max response: inactive: 3.13% and inactive: -14.8%

## COc1cc(C(=O)OCCCN2CCCN(CCCOC(=O)c3cc(OC)c(OC)c(OC)c3)CC2)cc(OC)c1OC
[1]
  max response: inactive: -12.1%
[5]
  Potency: inconclusive: 33.5 µM [inhibitor, single point]
[6]
  Potency: inconclusive: 33.5 µM [inhibitor, single point]
[2]
  Potency: active: 3.98 µM
[10]
  Potency: inconclusive: 11.2 µM [inhibitor, partial curve]
[11]
  Potency: inconclusive: 35.5 µM [cytotoxic, single point]
[12]
  Potency: inconclusive: 39.8 µM [cytotoxic, single point]
[13]
  Potency: inconclusive: 28.2 µM [cytotoxic, single point]

## OCCN1C[C@H](O)[C@@H](O)[C@H](O)[C@@H]1CO
[7]
  Potency: inconclusive: 37.2 µM [inhibitor, single point]
[8]
  outcome: inactive

## CCC(=O)O[C@]1(C(=O)CCl)[C@@H](C)C[C@H]2[C@@H]3C[C@H](F)C4=CC(=O)C=C[C@]4(C)[C@@]3(F)[C@@H](O)C[C@@]21C
[7]
  Potency: inconclusive: 20.6 µM [inhibitor, single point]

## COc1ccc(-n2nc(C(N)=O)c3c2C(=O)N(c2ccc(N4CCCCC4=O)cc2)CC3)cc1
[7]
  Potency: inconclusive: 37.2 µM [inhibitor, single point]
  max response: inactive: 2.24%
[5]
  Potency: inactive

## NC(=O)c1cccc(-c2cccc(OC(=O)NC3CCCCC3)c2)c1
[7]
  max response: inactive: -9.31%

## CC1(C)[C@H]2CC[C@]3(C)[C@@H](C(=O)C=C4[C@@H]5C[C@@](C)(C(=O)O)CC[C@]5(C)CC[C@]43C)[C@@]2(C)CC[C@@H]1O
[7]
  max response: inactive: -1.55%

## COc1ccnc2[nH]cc(C(=O)C(=O)N3CCN(C(=O)c4ccccc4)C[C@@H]3C)c12
[7]
  max response: inactive: -2.26%

## COc1c(C)c2c(c(O)c1CC=C(C)CCC(=O)O)C(=O)OC2
[1]
  Potency: inconclusive: 9.35 µM [inhibitor, full curve]
[14]
  Potency: inconclusive: 7.43 µM [inhibitor, partial curve]
[15]
  Potency: inconclusive: 14.8 µM [inhibitor, partial curve]
[16]
  Potency: active: 9.35 µM

## C[C@@H](O)[C@H]1C(=O)N2C(C(=O)O)=C([C@H]3CCCO3)S[C@H]12
[1]
  Potency: inconclusive: 4.22 µM [inhibitor, single point]
[2]
  Potency: inconclusive: 0.501 µM [inhibitor, full curve, poor fit]
[11]
  Potency: inconclusive: 3.55 µM [cytotoxic, single point]

## COC(=O)[C@H]1[C@H]2C[C@@H]3c4[nH]c5cc(OC)ccc5c4CCN3C[C@H]2C[C@@H](OC(=O)/C=C/c2cc(OC)c(OC)c(OC)c2)[C@@H]1OC
[1]
  max response: inactive: -14.2%
[11]
  Potency: inactive

## CN1CCC(COc2cnc(-c3cccc(Cn4nc(-c5cccc(C#N)c5)ccc4=O)c3)nc2)CC1
[1]
  Potency: inconclusive: 29.1 µM [inhibitor, single point]
[4]
  Potency: inconclusive: 33.2 µM [inhibitor, single point]
[5]
  Potency: inconclusive: 14.8 µM [inhibitor, partial curve, poor fit]
[16]
  Potency: inactive
[11]
  Potency: inconclusive: 35.5 µM [cytotoxic, single point]
[12]
  Potency: inactive

## OC(Cn1cncn1)(Cn1cncn1)c1ccc(F)cc1F
[1]
  max response: inactive: 2.49% and inactive: -1.86%
[2]
  Potency: inactive

## Cc1cc(SCc2sc(-c3ccc(C(F)(F)F)cc3)nc2C)ccc1OCC(=O)O
[1]
  Potency: inconclusive: 9.35 µM [inhibitor, partial curve]
[17]
  Potency: inconclusive: 18.4 µM [inhibitor, single point]
[9]
  Potency: inconclusive: 5.01 µM [cytotoxic, single point]
